Results reported in the RNAGym collection of RNA variant scans (doi:10.7554/elife.90254).
The source gives no read counts; variants with many changes may rest on few reads.

B1: LINE1-mini (parent)
chain: GGCAGAGCUCAACACAGCGUGGCAAAGUGGCUGUGGCUAGACUGCC

Variants of: B1
Assay: self-cleavage, relative activity (ratio to wild type); higher = more cleavage; in vitro, sequencing; the parent is a self-cleaving ribozyme

| Variant | self-cleavage |
| --- | --- |
| A12G G35A G36U | 0.1 |
| C13G C18G C23A A24U G36U C45U | 0.04 |
| A14G U20A G21C G40C U43A | 0 |
| U28A U32A C46U | 0.09 |
| G17C A26C U38C G40U G44U | 0.07 |
| U32A G40A C45U | 0.29 |
| C8U A16C G35C C37U | 0.21 |
| G5A G7A U28C U34C | 0.11 |
| C18A G19C G27U C46A | 0.16 |
| G29U A39C G44C | 0.13 |
| G5C C8A C10U G40U G44U | 0.15 |
| C8U A25G C46U | 0.04 |
| C8A A16U U28A | 0.08 |
| C23U A26G A41C | 0.04 |
| C15G G29C G35C U43A C45A | 0 |
| C23U U32C G33U G36C U43G | 0.09 |
| A24G C31U U34G G36C G44U C45A | 0.01 |
| G1A A4U C10G A39G | 0.03 |
| G5A C23U G27A U28G C45U | 0.05 |
| G5A A26C G30A U38G | 0.01 |
| C8A C13A G19A C37U | 0.67 |
| G7U U9C G27U G29A | 0.01 |
| A4C A6U G7C U32C | 0.09 |
| G7C C18A G22C A24G A25C A39U C46A | 0.02 |

| Variant | self-cleavage |
| --- | --- |
| G2A U9G U43A | 0.27 |
| G22C G30A G44U | 0.03 |
| A4C A39G C46U | 0.19 |
| U38G C42G U43A G44C | 0.04 |
| A4U C10U U34A | 0.1 |
| G5A G27U U28C C37A G40U | 0.03 |
| G5C C13A A25G G30C | 0.17 |
| G7U G35U G40C | 0.1 |
| A16C U34C C37A | 0 |
| U20A G27A U28C C31G C37A | 0.02 |
| G1A A26U U32A | 0.01 |
| G1A G7C A14G G17U G27U U43G | 0.01 |
| A11G A24G A26C | 0 |
| A6G C18G G22U G36U G44C | 0.02 |
| C18U U32A A39U C42A | 0.03 |
| A4U U43A G44U | 0.31 |
| U20G G35C G40U | 0.1 |
| G5U G27U G29A | 0.02 |
| A16U A26C G30A C45A | 0.03 |
| G35C C37G U43C G44U | 0.04 |
| G19A A25C G33U | 0.09 |
| G2U C3A A41U | 0.27 |
| U9A C10U A11U C37G U43G | 0 |
| A12G C23U C37G | 0.03 |

| Variant | self-cleavage |
| --- | --- |
| G5C G7C C8G G22C U32A G33U | 0.06 |
| A6C C15G G40C C46G | 0.01 |
| A4U C13U C15U | 0.08 |
| G19U G29A C46A | 0.34 |
| G21U C31U U38C G44A | 0.03 |
| G5U C15A U28A | 0.04 |
| C8U U34G G44U | 0.06 |
| G5A A26U U32G G40U | 0.03 |
| C18A G21C G36A | 0.13 |
| A16U G19C U28A G36A | 0.06 |
| G2C G19A G21U G33U | 0.02 |
| A25G G30C G36C U38C G40U | 0.04 |
| G2A C13A C23A U34C G36A | 0.4 |
| C3U A11U U43A | 0.08 |
| C8A U32C U34G G36C | 0.08 |
| G1A C10U A14G C15G A16U A24C | 0.06 |
| U9G U20G C45U | 0.37 |
| A6G G21A A24U G33U | 0.08 |
| A11C U20A G36A G44C | 0.02 |
| A12U A16G A24U | 0.06 |
| G19U C23A U32C C46G | 0.19 |
| G2C U9C C10A A12C C18A A41G | 0 |
| C10G G17A G19C G33U | 0.01 |
| G19U G22A C23G | 0.12 |

| Variant | self-cleavage |
| --- | --- |
| A24U G29C U38G | 0.01 |
| G5C G7U C15A U34A | 0.15 |
| G2A A11U G21A G30C U34C C46G | 0.03 |
| U9A C10U A14G C23G U28G G35A | 0.1 |
| A12C C18A G30U G40U | 0.01 |
| G2C G19A A24C | 0.1 |
| A6U U20G C31A C37A | 0.04 |
| G1A C13U G30A G33A | 0.1 |
| G1C C13A C18U C31G | 0.03 |
| G5U G33A G35U C46U | 0.09 |
| A6G C18G A24U | 0 |
| G7A G27U G35C | 0.15 |
| U28G U34A C42G | 0.01 |
| A6G C8A A11C G21A A25C | 0.01 |
| G2U C18A G30U | 0.15 |
| C3U A16U A26U G30C U38C | 0.21 |
| A25U U32A C45A | 0.14 |
| U20A A26C G33U C45G | 0.08 |
| A6U A26U G29U G33U U34C C42G | 0.08 |
| C23U G33C C46U | 0.03 |
| A24C G33C U38A C42G C46A | 0.01 |
| A14G U20G C42G C45A | 0.08 |
| G7C C18G G19U G30A | 0.05 |
| A4U U9G C15G G22A | 0.04 |

| Variant | self-cleavage |
| --- | --- |
| G33U U38G U43C | 0.01 |
| A4G C15G U20A G22C G27C G35C | 0.01 |
| G7C A11G C13A C46A | 0.04 |
| C8G A16U A24C C42A C45A | 0.05 |
| A24C G30A C31A U38G | 0.01 |
| A4U A12G A39U C45U | 0.02 |
| A16C G21A C31U | 0.05 |
| G1U G22U A24G G30A | 0.21 |
| A4G A6G C10U G21A C42A | 0.02 |
| C8G C13G C15A G29A G35A A39C U43A C46U | 0.05 |
| C10G U34A C46G | 0.01 |
| C3G G19C U32A | 0.05 |
| A12C A14U G40C A41C | 0 |
| G22C G30U A39U | 0.14 |
| G5U C10A C31A A39G | 0.02 |
| A6U C18A A26G | 0.51 |
| A12C G17C G36U C45A C46A | 0.01 |
| A14U G35U A41U | 0.16 |
| G5A G7A C23G G44U | 0.05 |
| C23G C45G C46U | 0.2 |
| G1C A24G G27U A39G | 0.07 |
| C10A G33A A39U | 0.01 |
| G2A G22A C23U G36U | 0.24 |
| U9G A16U U28A U34A | 0.02 |

| Variant | self-cleavage |
| --- | --- |
| G1C C10A A25C A41U | 0 |
| A4C G30U U43C | 0.25 |
| G2A U9G G35U | 0.13 |
| U28C U32C U43C | 0.02 |
| G1A G2A A6C G30C G33C | 0.17 |
| C3U G5C C18A | 0.13 |
| A6G G7C C10A U20G | 0 |
| G22A U28A A39C | 0.02 |
| G2U G17A C45U | 0.02 |
| C15U G27C G30C G44A | 0.02 |
| G21U G33C C46G | 0.04 |
| A14G C23A G36A A41U C45A | 0.12 |
| G17A G19A U20G A24U C31A C46U | 0.02 |
| A14C U20C A25U U28G C37U | 0 |
| G7U U28A G35A | 0.06 |
| C8A A14G A24C U34G | 0.04 |
| G7C A11U A25C | 0.03 |
| G2U C8A A14C U20G G22A A24U | 0.13 |
| G2C G7U U9A C23G | 0.17 |
| G5C C10A G29U U32A | 0.08 |
| G21U G29U G36C G40A | 0.34 |
| A6G G27U C37U G40A C45A | 0.09 |
| G2C G21A C46G | 0.6 |
| G5A A16C G30A | 0.05 |

| Variant | self-cleavage |
| --- | --- |
| G7A C13G C42U G44A | 0.35 |
| C3U G22U C23A U28A | 0.23 |
| A25C U34C C37G | 0.03 |
| A16U G36U C37U C46A | 0.04 |
| C10G A41C U43C G44U C45G | 0.01 |
| C8A G29A G40U C46U | 0.11 |
| G29U G33A G35U | 0.04 |
| G22A G30U G40A | 0.06 |
| C8U A14G G22C U28G G33C | 0.03 |
| G19A G22U C31A G33A | 0.07 |
| U38A G40C C42A | 0.04 |
| G7A C15U U20G C23A A26G | 0.22 |
| A24U G40A G44U | 0.13 |
| G7A U28C U34G A39G C42U | 0.04 |
| A16U U38G G44C | 0.04 |
| A12U G17A G22A A26G G33A | 0.07 |
| G2C A12G C13U G30A C31A | 0.11 |
| A4G A14C C37U | 0.06 |
| C23U G30A G36U U38A G44U | 0.23 |
| A25G A41C U43C | 0.04 |
| G7U C13A G22C A24C C37G C46G | 0.01 |
| A12C G21U C37U | 0.01 |
| G7C A25G U28C | 0.03 |
